Laboratory results published in publication PMC4336329 (PLoS ONE, 2015).
In all, about 310,000 compounds went through this assay and about 2,200 (0.71%) showed an effect of 50% or more. The effect is printed as a negative number. Some of the results follow.

Biological target: human ether-à-go-go-related gene (hERG) potassium channel (human, UniProt Q12809)
Experiment: primary screen, population patch clamp on CHO cells stably expressing hERG

Chain of human ether-à-go-go-related gene (hERG) potassium channel (Q12809 whole entry, looked up): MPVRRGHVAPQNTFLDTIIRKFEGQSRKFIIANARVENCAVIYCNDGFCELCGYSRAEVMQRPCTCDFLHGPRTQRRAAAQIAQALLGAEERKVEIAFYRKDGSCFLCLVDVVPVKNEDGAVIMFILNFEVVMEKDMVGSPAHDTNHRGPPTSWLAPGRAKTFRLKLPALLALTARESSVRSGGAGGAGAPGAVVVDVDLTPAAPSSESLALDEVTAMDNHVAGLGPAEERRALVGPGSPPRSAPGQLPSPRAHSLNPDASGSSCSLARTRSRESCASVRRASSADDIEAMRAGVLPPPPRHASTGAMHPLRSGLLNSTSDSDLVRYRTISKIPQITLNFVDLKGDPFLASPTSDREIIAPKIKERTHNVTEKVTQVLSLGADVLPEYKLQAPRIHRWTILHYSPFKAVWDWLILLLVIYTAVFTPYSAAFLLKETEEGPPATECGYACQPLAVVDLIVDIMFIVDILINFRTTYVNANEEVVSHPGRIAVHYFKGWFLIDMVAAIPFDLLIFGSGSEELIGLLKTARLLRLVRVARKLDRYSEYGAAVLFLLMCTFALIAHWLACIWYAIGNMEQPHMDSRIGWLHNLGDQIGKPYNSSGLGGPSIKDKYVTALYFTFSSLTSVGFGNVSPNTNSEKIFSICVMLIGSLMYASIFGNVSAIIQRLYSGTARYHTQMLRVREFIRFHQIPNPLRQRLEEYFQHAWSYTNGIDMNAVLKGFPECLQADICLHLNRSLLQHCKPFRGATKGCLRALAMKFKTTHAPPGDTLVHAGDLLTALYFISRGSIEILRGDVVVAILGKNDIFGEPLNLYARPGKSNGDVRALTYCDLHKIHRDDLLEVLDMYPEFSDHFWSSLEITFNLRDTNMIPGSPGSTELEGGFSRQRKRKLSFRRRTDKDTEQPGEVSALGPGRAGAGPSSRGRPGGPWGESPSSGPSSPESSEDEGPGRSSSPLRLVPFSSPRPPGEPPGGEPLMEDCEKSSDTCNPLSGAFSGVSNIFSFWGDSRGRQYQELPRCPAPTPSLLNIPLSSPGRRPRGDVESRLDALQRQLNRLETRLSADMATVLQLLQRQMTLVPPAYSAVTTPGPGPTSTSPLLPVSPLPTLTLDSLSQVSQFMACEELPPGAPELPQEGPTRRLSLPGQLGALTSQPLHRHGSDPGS

Structure (SMILES)	hERG current change (%, negative = inhibition) at 1uM [%]
COc1ccc(NC(=O)CSc2nnc(Cc3cccn3C)n2-c2ccc(F)cc2)cc1	-4.59
CCc1nc(Nc2ccccc2)c2nnn(Cc3ccccc3)c2n1	10.5
CCN(CC)c1ccc(S(=O)(=O)N2CCOCC2)cc1NC(=O)COC(=O)COc1ccccc1C	11.5
COc1ccc(S(=O)(=O)N2CCc3ccccc32)cc1C(=O)Nc1cccnc1	-0.445
COc1cc(/C=N/N=C(\N)c2nonc2N)cc(OC)c1O	14.1
CCC1(CC)NC(=O)N(CC(=O)OC(C)C(=O)Nc2ccc(Cl)cn2)C1=O (stereo not drawn)	-6
O=C(COc1ccc(Cl)cc1)NNC(=O)C(=O)NC1CCCCC1	10.9
CC1CCCCN1CCCNC(=O)CN1C(=O)CSc2ccc(S(=O)(=O)N3CCOCC3)cc21 (stereo not drawn)	19.5
COc1cc(C(=O)NCC(c2cccnc2)N2CCN(c3ccc(F)cc3)CC2)cc(OC)c1OC (stereo not drawn)	6.81
CCc1ccccc1NC(=O)c1onc(C)c1Cl	14.5
CCOC(=O)N1CCN(C(=O)c2cn(CC)c3ccc(S(=O)(=O)N4CCCCC4)cc3c2=O)CC1	6.9
CCC(=O)c1ccc(OCC(O)Cn2nnc3ccccc32)cc1 (stereo not drawn)	-2.1
COc1ccccc1NC(=O)CSc1ccc(-c2ccccn2)nn1	16.8
Cn1c(=O)c2c(nc(Cc3ccccc3)n2C)n(C)c1=O	11.3
CCc1cc(C(=O)N(CC(C)C)c2c(N)n(Cc3ccccc3)c(=O)[nH]c2=O)sc1C	-11.3
CCn1c(SCC(=O)NCc2ccc3c(c2)OCO3)nnc1-c1cccs1	-12.2
CC(C)COc1ccc(CN=C(N)N=C(N)N)cc1Cl.Cl	6.41
Nn1cc(-c2ccccc2)nc1SCC(=O)N1CCN(S(=O)(=O)c2ccccc2)CC1	0.236
Cc1cccc(NC(=O)CCNC(=O)c2ccccc2)c1	9.4
CCCCNC(=S)NCC(c1ccccc1)c1c[nH]c2ccccc12 (stereo not drawn)	7.13
COc1ccccc1NC(=O)c1nnn(CC(=O)Nc2ccccc2)c1N	16
CCN(CC)S(=O)(=O)c1ccc(C(=O)Nc2nnc(COC)o2)cc1	7.48

Structure (SMILES)	hERG current change (%, negative = inhibition) at 1uM [%]
COc1ccc(-c2ccc(CCC(=O)O)n2NC(=O)c2ccc(C(C)(C)C)cc2)cc1	14.4
O=C1[C@@H]2Cc3c([nH]c4ccccc34)C(c3ccccc3)N2C(=O)CN1CCO (stereo partly drawn)	0.149
COc1cccc(COC(=O)C2CCN(S(=O)(=O)c3cccs3)CC2)c1OC	3.86
O=S(=O)(NCCSc1ccccn1)c1ccc(Cl)cc1	-1.28
COC(=O)CN(n1cnnc1)S(=O)(=O)c1ccccc1	10.5
CCCCOP(=O)(OCCCC)C(Nc1ccccc1)c1ccc2c(c1)OCO2 (stereo not drawn)	-1.1
CC1(CC(=O)N/N=C/c2cc3c(cc2Br)OCO3)OCCO1	3.85
CCN(CC(=O)NCc1cccs1)C(=O)/C=C/c1cc(OC)ccc1OC	9.08
O=C(CCNC(=O)c1ccc(Cl)cc1)Nc1ccc(S(=O)(=O)N2CCCCC2)cc1	-0.658
Cc1ccc(C)c(OCCC(=O)OCC(=O)NC(=O)NC2CCCC2)c1	7.89
CCOCCCNCc1ccc(OCc2ccccc2Cl)cc1	-0.539
Cc1ccnc(NC2c3ccccc3C(=O)N2Cc2ccccc2Cl)c1 (stereo not drawn)	18.7
O=C(Nc1ccc(Cl)cc1)C1CCCN(c2cnccn2)C1 (stereo not drawn)	10.2
Cc1ccc(NC(=S)NNc2ncc(C(F)(F)F)cc2Cl)c(C)c1	12.5
Cc1nc(NC(=O)C2CC2)sc1C(=O)Nc1ccc(Br)cc1	24
O=C(c1ccccc1)N1CCC(c2nc3c(nnn3Cc3ccccc3Cl)c(=O)[nH]2)CC1	21.6
CC(Sc1nc2ccccc2c(=O)n1C)C(=O)NC1CCCCC1C (stereo not drawn)	3.93
CCCC(C(=O)NC1CCCC1)N(C(=O)Cn1nnc(-c2ccc(C)o2)n1)C1CCCC1 (stereo not drawn)	-0.731
C=CCNC(=S)NNC(=O)c1cccn(Cc2ccc(Cl)cc2)c1=O	-0.762
Cc1cccc(NC(=O)CCS(=O)(=O)c2ccc(Br)cc2)c1	10.1
Cc1c(-c2ccccn2)c(=O)[nH]n1-c1ccc(F)cc1	-0.408
O=C(C1CCCN(S(=O)(=O)c2cccc3nonc23)C1)N1CCN(c2ccccc2)CC1 (stereo not drawn)	2.02

Structure (SMILES)	hERG current change (%, negative = inhibition) at 1uM [%]
COc1ccc(CN(C)C(=O)C2CSC3(C)CCC(=O)N23)cc1 (stereo not drawn)	7.07
Cc1ccc(Sc2c(C(=O)Nc3ccc(F)cc3F)c(C(F)(F)F)nn2C)cc1	15.7
CC(c1ccccc1)N1CNc2c(c(=O)n(C)c(=O)n2C)C1 (stereo not drawn)	11
CC(=O)n1nc(-c2ccncc2)nc1SCC(=O)Nc1cccc(Cl)c1	24.5
O=[N+]([O-])c1cccnc1N1CCN(c2ccccc2F)CC1	0.0476
CN(C(=O)CC1C(=O)NCCN1CC1CCCCC1)C1CCOCC1 (stereo not drawn)	10
Cc1ccc(C(=O)COC(=O)C2CC(=O)N(c3nc(-c4ccccc4)cs3)C2)cc1C (stereo not drawn)	3.96
NNC(=O)/C(=C\c1cccs1)NC(=O)c1ccccc1	11.3
COc1ccc(C(CNC(=O)CSc2ccccc2F)N2CCOCC2)cc1 (stereo not drawn)	12.1
COc1ccc(N2CCN(C(=O)c3ccc(-c4ccccc4)cc3)CC2)cc1	16.3
O=C1N=C(N2C=CC(=C3C=CNC=C3)C=C2)/C(=C/N=NC(=O)c2ccccc2)S1	20.3
N#Cc1ccccc1NC(=O)C(=O)NCC1CCCN1S(=O)(=O)c1cccs1 (stereo not drawn)	22.8
CCN1C(=O)c2cccc3c(S(=O)(=O)Nc4ncccc4C)ccc1c23	9.17
COc1ccccc1-c1nnc(SCc2nc3ccccc3[nH]2)n1C	7.54
NS(=O)(=O)c1ccc(CNC(=O)c2ccc3ccccc3n2)cc1	11.8
Cc1ccc(S(=O)(=O)Nc2c(NC3CCCCC3)c3ccccc3oc2=O)c(C)c1	-0.936
CCCN1/C(=C(/C#N)C2=NS(=O)(=O)c3ccccc32)N(C)c2ccccc21	-1.66
COc1ccc(/C=C(\C#N)C(=O)Nc2ccccn2)cc1	10.9
Cc1cc(S(=O)(=O)N2CCC(N3CCCCC3)CC2)ccc1-n1cnnn1	10.2
Br.CC(=O)c1ccc(N2Cc3ccccc3C3(CCOCC3)C2=N)cc1	-36.9
CCCCN(CC)C(=O)c1ccc(Cl)cc1	21.8
COc1ccc(C(=O)Cn2cc([N+](=O)[O-])nc2C)cc1	14.2

Structure (SMILES)	hERG current change (%, negative = inhibition) at 1uM [%]
CC1=C(C(=O)Nc2ccc(Br)cc2)C(c2ccco2)NC(=O)N1 (stereo not drawn)	8.34
S=c1[nH]nc(C2CCCCC2)n1/N=C/C=C/c1ccccc1	10.7
COc1cc(CC(=O)Nc2cc(S(C)(=O)=O)ccc2Cl)cc(OC)c1OC	10.9
O=C(c1scc2c1CCCC2)N1CCCCC1	20.2
Cc1onc(-c2c(Cl)cccc2Cl)c1C(=O)Nc1ccc2c(C(F)(F)F)cc(=O)oc2c1	-9.17
O=C(Cn1nc2ccccc2n1)N/N=C/c1cc([N+](=O)[O-])ccc1O	0.346
CCCc1nnc(NC(=O)CCC(=O)N2CCN(S(=O)(=O)c3ccc(F)cc3)CC2)s1	10.2
CCN(C(=O)c1ccc(NC(C)=O)cc1)c1ccccc1C	11.2
COc1cccc(NC(=O)[C@H](CC(C)C)NC(=O)N2CCn3c2nc2ccccc23)c1	20.3
CN1/C(=C\C(=O)COC(=O)Cn2nnc(-c3ccccc3)n2)C(C)(C)c2ccccc21	14.2
CCCc1cc(=O)[nH]c(SCC(=O)c2cc(C)n(-c3c(C)n(C)n(-c4ccccc4)c3=O)c2C)n1	15.3
Cc1ccc(C2(C)NC(=O)N(CC(=O)N3CCN(S(=O)(=O)c4ccc(Cl)s4)CC3)C2=O)cc1 (stereo not drawn)	-16.8
O=C(Nc1ccc([N+](=O)[O-])cc1)c1ccccc1	13.4
Cc1ccc(C(=O)NC(=S)Nc2ccc(N3CCOCC3)cc2)cc1	16.3
CSCC[C@H](NC(=O)OC(C)(C)C)c1nnc(SCC(=O)Nc2c(C)cccc2C)o1	-4.41
CCc1c(C)nc2ncnn2c1NCc1cccs1	6.69
CN(CC(=O)NCCc1ccc(F)cc1)Cc1cccc(Cl)c1	8.65
CCOC(=O)CSc1nc2cccnc2n1C	12.5
CCC(C)Sc1nc(C)nc2c1c(=O)n(C)c(=O)n2C (stereo not drawn)	-9.12
O=C1CCCc2nc(N3CCc4ccccc43)ncc21	2.05
COc1ccccc1-c1cc(C(=O)N2CCN(S(=O)(=O)c3ccc(C)cc3)CC2)[nH]n1	6.32
